Measured values: PubChem BioAssay AID504706 (National Center for Advancing Translational Sciences (NCATS), 2011)
In all, about 320,000 compounds went through this assay and about 200 (0.062%) were called active. Inconclusive means that the source gave no clear call. Such entries were picked first, then a sample of the others. Calls follow the shape of the dose curve; as a rule, active = well fitted activation curve with a large enough effect; inconclusive = small, poorly fitted or top-dose-only effect; inactive = no such curve, though single readings can be large or run the other way. No potency is given beside an inconclusive call; the fits are too rough.

Experiment: qHTS assay for re-activators of p53 using a Luc reporter; also: nearly all actives have a fitted effect of over 45% in size; as to activity change, positive = activation: % of control where 0% means no effect
Conditions: H1299 p53-A138V BP100-luciferase reporter, luminescence, 24 h; series mostly up to 92.2 µM; activity change, positive = activation: at the top concentration
Procedure, shortened: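 H1299 (p53-null), stable ts p53-A138V + BP100-Luc; 1000 cells/well, Opti-MEM/10% FBS; cpd 4 pt, 1:5; 24 h, 37 deg C, 5% CO2; detection reagent 10 min RT; luminescence.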
Potency is read from the fitted curve at half-maximal effect; tags tell the direction and shape of the fitted curve.

SMILES	Potency	activity change, positive = activation
CN(C)S(=O)(=O)c1ccc(C(=O)Nc2ccccn2)cc1	inconclusive [activator, partial curve, poor fit]	–
Cc1cc(C)nc(N(C#N)CC(=O)c2ccccc2)n1	–	inactive: 16.7%
COc1cccc(/C=C2\Oc3cc(OCC(=O)N4CCCCC4)ccc3C2=O)c1OC	inconclusive [activator, single point]	–
CN1CCCc2cc(C#N)c(=O)[nH]c21	inconclusive [activator, single point]	–
CC(=O)Oc1ccc(-c2nc(-c3cccnc3)no2)cc1	inconclusive [activator, full curve, poor fit]	–
O=C(NCc1ccc(F)cc1)C(=O)NCC1OCCN1S(=O)(=O)c1ccc2c(c1)OCCO2 (centres undefined)	–	inactive: 2.13%
CCOC(=O)c1sc(NC(=O)c2ccc(C)s2)cc1C	–	inactive: 4.04%
O=C1c2ccccc2C(=O)N1OCc1cccc(Cl)c1	–	inactive: -4.81%
COc1cccc(-c2nnc(NC(=O)C3CCCCC3)o2)c1	–	inactive: -1.01%
O=C(CN1CCN(c2ccccn2)CC1)Nc1ccc2ccccc2c1	inconclusive [activator, partial curve, poor fit]	–
CC1=C(C#N)C(C)C2=C(CC(C)(C)CC2=O)N1 (centres undefined)	–	inactive: 1.16%
CC(C)(C)C1CCC(=O)N(CCOc2ccccc2)CC1 (centres undefined)	–	inactive: 16.3%
COc1ccc2[nH]c3c(c2c1)CCn1c-3nc2ccccc2c1=O	inconclusive [activator, partial curve, poor fit]	–
O=C(Nc1nnc(C2CCCCC2)s1)c1cccs1	inconclusive [activator, single point]	–
COc1ccc(/C=C2\COc3ccccc3C2=O)c(OC)c1	inconclusive [activator, partial curve, poor fit]	–
O=c1[nH]c2ccccc2cc1-c1nnn(-c2ccc(F)cc2)n1	–	inactive: 7.4%
CCN(CC)S(=O)(=O)c1ccc(Oc2ccccc2)cc1	inconclusive [activator, single point]	–
CCc1ccc2c(c1)C(c1ccc([N+](=O)[O-])cc1)=NNC(c1ccc(F)cc1)=N2	inconclusive [activator, full curve, poor fit]	–
Nc1ccccc1C(=O)N/N=C1/C2CN3CCN(C2)CC1(Cc1ccccc1)C3	inconclusive [activator, partial curve, poor fit]	–
CC(C)CC(=O)Nc1ccc2c(c1)oc1ccccc12	inconclusive [activator, full curve, poor fit]	–
COC(=O)c1oc2ccc(Cl)cc2c1N	–	inactive: 16.7%
CCOc1c(Cl)cc(/C=N/NC(N)=S)cc1OC	inconclusive [activator, partial curve, poor fit]	–

SMILES	Potency	activity change, positive = activation
Clc1ccc(-c2nc3nc4ccccc4nc3n2Cc2ccco2)cc1	inconclusive [activator, partial curve, poor fit]	–
Cc1nn2c(-c3ccccc3)ccnc2c1-c1ccccc1	inconclusive [activator, full curve, poor fit]	–
N=c1oc2cc(O)ccc2cc1C(=O)Nc1nc2ccccc2s1	inconclusive [activator, full curve, poor fit]	–
CCC[C@@H](CN1CCC[C@H]1CN1C(N)=NC[C@@H]1Cc1ccccc1)N1C[C@@H]([C@H](C)CC)N(CCCC2CCCC2)C1=N	–	inactive: -1.29%
O=C(Nc1ccc(Cl)c(S(=O)(=O)N2CCOCC2)c1)c1cc(=O)[nH]c2ccccc12	inconclusive [activator, single point]	–
O=C(NCCc1c[nH]c2ccccc12)c1cnc2sccn2c1=O	inconclusive [activator, full curve, poor fit]	–
O=C(CSc1ccc(-c2cccnc2)nn1)N1CCCCC1	inconclusive [activator, single point]	–
CC(=C/c1ccccc1)/C=N/NC(=O)c1cc(C)oc1C	active: 11.2 µM	–
Cc1ccc(C(=O)NNC(=O)c2ccc3c(c2)OCCO3)cc1	inconclusive [activator, full curve, poor fit]	–
CC(C)(C)C(=O)OCc1nc(-c2ccc(O)c(O)c2)cs1	inconclusive [activator, partial curve, poor fit]	–
CCc1sc(C(=O)Nc2nc(C)cs2)cc1C	inconclusive [activator, partial curve, poor fit]	–
CCCCN(C(=O)NC(=O)Nc1nc2ccc(OC)cc2s1)S(C)(=O)=O	inconclusive [activator, full curve, poor fit]	–
FC(F)Sc1ccc(Nc2ncnc3nc[nH]c23)cc1	inconclusive [activator, partial curve, poor fit]	–
c1cc(-n2nnc3cnccc32)ccn1	inconclusive [activator, single point]	–
O=C(O)CCNc1ccc2c(c1)OCCO2	inconclusive [activator, partial curve, poor fit]	–
Clc1ccc(/C=N/N2CCN(Cc3ccccc3)CC2)cc1	inconclusive [activator, single point]	–
CCOC(=O)N1CCC(NC(=O)c2ccc3c(c2)N=C(CC)c2cc(C)ccc2S3)CC1	inconclusive [activator, single point]	–
Cc1ccc(Cn2c(C)nc3c(c2=O)c2nc4ccccc4nc2n3Cc2ccco2)cc1	inconclusive [activator, single point]	–
O=C(O)CSC1CC(=O)N(c2ccc(Br)cc2)C1=O (centres undefined)	–	inactive: -2.61%
CN1CCN(c2ccc(NC(=O)c3ccccc3Br)cc2)CC1	inconclusive [activator, partial curve, poor fit]	–
CC(=O)CCSc1ncnc2sc(-c3ccccc3)cc12	–	inactive: -3.48%
Cc1ccc(/C=C2\SC(=S)N(CC(=O)Nc3ncc(Cc4ccccc4Cl)s3)C2=O)cc1	inconclusive [activator, partial curve, poor fit]	–
